Assay results from the supplement of paper PMC12632987.
The full ranking holds about 4,500 sequences; the median of “median log2 fold change of GCK-ALFA target abundance (FLAG IP / Myc IP barcode read proportion)” is about 0.078, and the lowest 2% start at about -0.6. The list shows a part of the results.

B1: GBRAP_137_3631 (protein)
chain: ATVTIDIRHYPGVVEITVTLKDAAKAEAVKELVLDIAHEHGALAVSAEIDEDGTLTVTIWVPTERADALLDALVRRLTTELGATVVVRDLDTGEERTYTP
B2: GBRAP_52_6094 (protein)
chain: AEAKRQAYADALLAAALAGDVDAATAIILDMVAELSEEEVRATFRLFAEKASTLPADELERATEVFIEALDRVADETGLEELMDEMEAYLAAKAYAALQA
B3: GBRAP_125_3049 (protein)
chain: SLEEAIEALAALARLLGYSEEEVEELRELARRHGVKGALIALMLAEGEEELADLASQLTDEEVAEVLAAHLAWLRAHPDATAEEALAHLRALLRAALAKR
B4: GBRAP_11_2754 (protein)
chain: KKEELKKMAELAKKAAELIQKLLEEGVDNEELREELEKTLEELAKLTKEYGDEADKKLVEIMKELWEEALADPENAVKYWEELLAAARVLAGDYLLDYEE
B5: GBRAP_80_6794 (protein)
chain: AEARLAAALAEVEALDPELAERVREIVEEAREMGVATEDLADFVAAIAKLLKLDREKARELVEELEEELEELKEEGDAEGAAATVRVYAGEALLEVEELE
B6: GBRAP_125_3083 (protein)
chain: DVEEALEYAGLILKAAGFSDEDVEEFKKASKDSTVSAIFSAVVLAITDEETELKALQLTEEQQLQVLKELAEYIEAHPDVTPEEVKEKLKELIDKALAEQ
B7: GBRAP_184_5318 (protein)
chain: EVVEVVLEVNSVEELRAGMAAVMAEVRASGKRVLLVVELRNATEEKIDELAALIKEAKAAGLPIEVIVETLDPLDEELVDHAVEKMDAAGARLVIAISDE
B8: GBRAP_160_4094 (protein)
chain: MEEIEKLIEEIDELRERAKKEIEGENIEQRAVILRGFGGDVLMLLFESGIAPDEVEDFADEEFDDLVATVEANPELTLEEIKALLDEVVEKVKEKIKELG
B9: GBRAP_184_5285 (protein)
chain: TVRDVEIVAETAEEAIAQVRAAAERARAEGAKLRLTLLLRDSDVEGVVALFKLLKELRDEGVIEDAVVGLEREVTEEELDTLLKAADEAGVKLVAAISDE
B10: GBRAP_184_5248 (protein)
chain: AVASLELTVRSAADIPAAVAAFAAHAAAHHGAVHVLLDAEGLSTAERVALVDALGAAAAAAGVTALTIDLTREVSEEEADALIAAADARGVRLVLALKDE
B11: GBRAP_52_5980 (protein)
chain: AEAEARALAEELLALMLAGDREGARALIREIVATKSEAFLELVFAALAELARTATPEERDAIVELALLLEDEALEGGFDEAVVDAGVARVAAAAVAAAAA
B12: GBRAP_184_5041 (protein)
chain: KIFEAEIEFNNLEELKEKLAELKEEVKNHKGTLIVHVKAPEFTKEMVETLMAALKEILDKGYAEKVTVGLDGKMSEEVVDLAVELADEAGINLVLALDEE
B13: GBRAP_125_3000 (protein)
chain: PSEAELAAVATLAAALGYSPADVEELVALARAHGVKQTMIAIALAEGAEELAEALEQLSEAEVAALLARVAAHIAAHPDLTPEELLELILALAREALAAR
B14: GBRAP_160_4406 (protein)
chain: SESFEKLKEEVKEIFDEAEELIKGQSPEERLVIARVSLGEILLEAFENEEITDEQEDELAKILDEGLKKIEKAVKEGEEAVLKAIRETRDKVLAFIDSLK
B15: GBRAP_78_6590 (protein)
chain: EIEKAIDELLEATNKAMTLLAKNPTEFAQDILGKLIDESTAIYEAREEYNDKELIKKEAKALKETLEEALAHADKFTPETVAALKEALEKAEKLIKLLEK
B16: GBRAP_160_4300 (protein)
chain: MEELEKLKKEIEEIADEAIEMIEGESPEQRRTIVRVAMGEVILLAMENPKVTDEAEDKIAAIADATEATIDANPDLSEEEVKELIEKARDEVIKIIKELE
B17: GBRAP_128_3366 (protein)
chain: LDEALLAEIRALVERMITSSVEETAALTREIVARIGTLSLAEQEAAVEIILAALPKLTKEKLEVVADTIRAAAPELDPETQRLLAEVEVEALNLAEELEE
B18: GBRAP_14_3796 (protein)
chain: MEEREKEINEIGEETIEIVKEIMKDAPEEVKEKVIELIEEARDKIIKEKLNSDEAAELGDETVKKVEEILKDAPPEVKAQVIATVAVMFGEIVLEIEELE
B19: GBRAP_16_4994 (protein)
chain: EELKNKIEGILEFVKDVADAFEDIDPEAAKLAKEAAEKLERAAKLLEEGGEKEEVKKELEEALKIVKELAKRYEDKDKEAAAIAKLIAKRIKEAIKLAEE
B20: GBRAP_160_4226 (protein)
chain: METVEKIVKVFRDTFLEALELIEGESAEERAVILDVAVGEVILEVSEIEEATDEMEEVVDKKAEALAAALLAAADASAAERRALVDKAAAELRKELEKIE
B21: GBRAP_11_2921 (protein)
chain: KKEKLKEIAELAEEAAKLVDRLIAEGVDNEELLAELEKKIEELKELVEKYGDEADKKDVEIIEELWKEALADPENREEYLKQLRAALRVLAGQYLLKLEE
B22: GBRAP_160_4725 (protein)
chain: EEEIKEFVEEFREEFLETLELTKDESKENAKALFRGTAGEILQDAFENPFLTDEQEDVVAEILDELVEELEKNFDASLEEKKEIVEEKMEELLEKLLELS
B23: GBRAP_160_4350 (protein)
chain: MEAVEKLIEEIRRATEEVIEELDEVSVEEAAVLAAGEFGAVAMEAALDERYSDEMVDAIIEGRDEAVRALRELRDASVEERKRRLREITERTIEELKRIA
B24: GBRAP_78_6671 (protein)
chain: EIEELIDNALEHLSKAARIVRKLPADKQLEILGLLVDAASDLLEAEEEGFDLEKLKEALKHLEKALKLLEKLDTEEAKKAAEEVKKAIEDVKKAIELLEK
B25: GBRAP_11_2711 (protein)
chain: KKEKLKELAKKAEELAEEIKKLIKEGPTKEEIEKLLKKAEELLKEAKKAGLPQSVLDLIEIAAEELKEAIENPENVKEHLERALAAFRVLAGELLLLAEE
B26: GBRAP_26_5460 (protein)
chain: MEEAERAAEAEVRAIAARLPDPRVAAAVVAEFSTELLEAEEAIENGEDPKEAFRKAREEFLAEARELMEEAGLSPEEIAAFEAELSAVFDKLEAEVLAEL
B27: GBRAP_160_4147 (protein)
chain: SAELKALIEEIREITEEAIKLMEGETPEEAKVIARVALGEIVMLVFSNEAVSEETEEEVGEVADEAEAHLRANPDLTVEEIKAILREAGEEVIEIIEKEV
B28: GBRAP_43_5779 (protein)
chain: SEELVEGAFEAALLAAETPEIDDETKVKIIKLAFELAADEGIFNEEKLEEIIEAAAKSLSAESLKEIKEHLLKIAKEHPELKEKLEKAAKKVEEAIKKKE
B29: GBRAP_53_6414 (protein)
chain: MEAEIAKLKAEALAKAEKAAAADEATLAKLVEEIGALLAALKAAGAPEEELTALAREIARKLKEAGAPDSALVALAQQLAALGLEDATAEVAEEAVEELE

Biological target: GABARAP, O95166
Sequence (O95166 whole entry, the tested form may be a part): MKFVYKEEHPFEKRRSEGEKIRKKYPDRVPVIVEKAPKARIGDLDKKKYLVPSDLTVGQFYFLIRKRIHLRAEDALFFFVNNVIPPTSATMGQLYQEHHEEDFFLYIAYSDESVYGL
Test: median log2 fold change of GCK-ALFA target abundance (FLAG IP / Myc IP barcode read proportion) (log2 ratio); each designed protein is fused to an ALFA-tag nanobody in HEK293 cells to bring the named protein to FLAG-tagged glucokinase (GCK); Myc marks an untargeted standard; higher = target protein stabilised (more abundant)
Settings: target protein: 3xFLAG-MCP-GCK-ALFA reporter; HEK293 landing pad (RPLP)
Summary of the method: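 The readout is target abundance, the per-binder median log2 ratio of FLAG to Myc barcode read proportions. It came from HEK293 landing-pad cells carrying a recombined ALFA-nanobody-fused binder library, induced with 2 μg mL^−1 doxycycline and transfected with a plasmid for a FLAG-tagged target and a Myc-tagged standard. After 48 h, lysates were immunoprecipitated with anti-FLAG and anti-Myc, and circular RNA barcodes were reverse transcribed, amplified and sequenced. Each barcode needed a proportion of at least 10^−7 in both replicates and each binder at least 3 barcodes per replicate, a pseudocount of 10^−6 was added, and the replicates were pooled.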

| Binder | median log2 fold change |
| --- | --- |
| B1 | 0.0981 |
| B2 | -0.102 |
| B3 | -0.288 |
| B4 | 0.279 |
| B5 | -0.508 |
| B6 | 0.133 |
| B7 | 0.0313 |
| B8 | -0.0612 |
| B9 | -0.105 |
| B10 | 0.128 |
| B11 | -0.762 |
| B12 | 0.113 |
| B13 | -0.00702 |
| B14 | -0.138 |
| B15 | 0.216 |
| B16 | -0.125 |
| B17 | 0.309 |
| B18 | -0.186 |
| B19 | -0.107 |
| B20 | -0.651 |
| B21 | -0.0079 |
| B22 | 0.0697 |
| B23 | 0.0909 |
| B24 | -0.446 |
| B25 | 0.0604 |
| B26 | 0.197 |
| B27 | -0.617 |
| B28 | -0.0621 |
| B29 | 0.386 |
